# Results taken from publication PMC5515408.
# Some of the results follow. At the low end of the ranking the order means little.
# Target: MAX:MAX (p21) (UniProt P61244-2)
# Experiment: protein-binding microarray (anti-MAX antibody)
# Conditions: PBM: 15 mM Tris-HCl pH 7.5, 100 mM KCl, 0.075% NP40, 7.5 mM beta-mercaptoethanol, 375 ng/ul BSA, 8 ng/ul poly(dA-dT):(dA-dT), 550 ng complex, 60 min, room …; high values mean tight binding; double strand, one strand shown; sequences stand for … in CCGGC…TTAATAGCTAAGATTACTATATCGACG
row,Sequence,binding signal (log2 normalized fluorescence)
1,TGATCCGTAGTA,-1.14
2,TGAAGTAAGGTA,-0.27
3,TGATTCCAAGTA,-0.654
4,TAAAACGTGGTA,3.1
5,TGACAGATCGTA,-0.703
6,TGACGGTAAGTA,-0.542
7,TGAGCCGTAGTA,-1.3
8,TGATGGATTGTA,-0.242
9,TGAGAGTGGGTA,-0.434
10,TGAGGCCGCGTA,-0.593
11,TGATACCATGTA,0.272
12,TGACACGTCCCA,1.31
13,TGATCCACGGTA,0.146
14,TGAAGCGTCGTA,-0.454
15,TCCCACGTAGTA,1.6
16,TGACCCATCGTA,-0.316
17,TGACGTACTGTA,-0.303
18,TGACAACCAGTA,0.135
19,TGACAGAGAGTA,-0.213
20,TGATGCTGTGTA,-0.14
21,TGAACTATGGTA,-0.682
22,TGAAGCCCGGTA,-0.644
23,TGACACGGCCTA,0.786

row,Sequence,binding signal (log2 normalized fluorescence)
1,TGAAAGATAGTA,-0.905
2,TGACGAAGCGTA,-0.906
3,TGACACGTGGCC,3.37
4,TGAAGGCTAGTA,-0.822
5,TGACGGTTTGTA,-0.912
6,TGAGAGGCAGTA,-0.654
7,TGAAGTCGAGTA,-0.979
8,TGACCGGTGCTA,0.574
9,TGAGCATCTGTA,0.186
10,TGATTGCCAGTA,-0.592
11,TGACAGTGCGTA,0.131
12,TGACCTCAAGTA,0.186
13,TGAATCCGAGTA,-1.09
14,TGATAGTGAGTA,-0.461
15,TGACACCTGAGA,1.4
16,TGAGACCTAGTA,-0.775
17,TGACGACGCGTA,-0.134
18,TGACTAACGGTA,-0.199
19,TGATTCGCCGTA,-0.988
20,TGAATGAGTGTA,0.304
21,TGACTCTCCGTA,-0.641
22,TGAAACTCTGTA,-0.918
23,TGAAGGTAGGTA,-0.417

row,Sequence,binding signal (log2 normalized fluorescence)
1,TGAGAACTAGTA,-1.04
2,TGACCGACGGTA,-0.371
3,TGACCCTTGATA,-0.546
4,TGATTCTACGTA,-1.14
5,TGAAGGACCGTA,-0.677
6,TGAAAATAGGTA,-1.24
7,TGAAACGTAGTA,-0.462
8,TGACACGCGGGA,3.09
9,TGAGCCCACGTA,0.253
10,TGAATCCTTGTA,-0.96
11,TGAGAGGATGTA,-0.431
12,TGATGTTTAGTA,0.108
13,TGACACGTGACA,3.44
14,TGACACGTGACC,3.18
15,GGACACGTGCTA,3.15
16,TGCCACGTAGTG,1.81
17,TGAGTGACCGTA,0.109
18,TGACCATGGGTA,1.67
19,TGATAACCGGTA,-0.891
20,TGACATAGTGTA,-0.152
21,TCTCACGTCGTA,1.36
22,TGAATGAGAGTA,-0.48
23,TGAGACAAAGTA,-0.9

row,Sequence,binding signal (log2 normalized fluorescence)
1,TGATGTTGAGTA,-0.163
2,TGACGAGGAGTA,-0.532
3,TGACGGCGAGTA,-0.0302
4,TGGCGCATGGTA,3.17
5,TGACATGGGCTA,1.49
6,TGATACGCTGTA,-0.487
7,TGAATTGGAGTA,-1.09
8,TGATCGACCGTA,-0.901
9,TGATCACCGGTA,0.372
10,TAAGATACCACT,-0.253
11,TGATGATCAGTA,0.24
12,TGACCGTAAGTA,-0.383
13,TGATCTGGGGTA,-0.652
14,TGATTGCAAGTA,-0.361
15,TGACAGAAGGTA,-0.167
16,TGACTAATAGTA,-1.09
17,TGACGGGCAGTA,-0.309
18,ACCCACGTGGTA,3.35
19,TGACGGTCCGTA,-0.69
20,TGATGGGATGTA,0.0994
21,TGATAAGGCGTA,-0.314
22,TGAACAGCGGTA,-0.0678
23,TGAATCAGGGTA,-0.184

row,Sequence,binding signal (log2 normalized fluorescence)
1,TGACATCCGGTA,0.0106
2,TGAGATACCGTA,-0.879
3,TGAGCCCGCGTA,-0.528
4,TGAGTAGAAGTA,-1.19
5,TGAGGCCTCGTA,-0.758
6,GGACACGTCGTA,2.25
7,AGACACGTGTTA,3.42
8,TGAAAAGTAGTA,-1.06
9,TGAAATGCTGTA,0.563
10,TGATCGGTGGTA,-0.666
11,TGAATAGTTGTA,-1.24
12,TGAACTGAAGTA,-0.661
13,TGAGGATACGTA,-0.712
14,TGCCACGTGCTT,3.14
15,TGACTCGTAGTA,-0.484
16,TGAGATTTAGTA,-1.48
17,TGAACCTAAGTA,-0.549
18,TGAGAGGAAGTA,-0.851
19,TGCAACGTCGTT,0.309
20,TGACCTCGGGTA,0.0954
21,TGATAGGACGTA,-1.01
22,TGAGTGTACGTA,0.137
23,TGAATGTCAGTA,0.32

row,Sequence,binding signal (log2 normalized fluorescence)
1,TGACTTTAAGTA,-0.85
2,CGACGCGTGGTA,3.33
3,TGAAGTGTGGTA,1.17
4,TGAGTGAAAGTA,-0.698
5,TGACCTGACGTA,-0.0753
6,TAGCACGTGTTT,3.52
7,TTGCATATTTAC,0.0341
8,TGAGGATGAGTA,-0.627
9,TGGTACGTGGTC,1.03
10,TGAAACGGCGTA,-0.534
11,TGATTTATGGTA,-0.868
12,TGACATTTAGTA,-0.344
13,TGAGGCGTGGTA,2.46
14,TGACATTGGGTT,-0.0321
15,TGAAATCTGGTA,-0.912
16,TGATTTATCGTA,-1.26
17,TGAGCCAGCGTA,-0.837
18,TGATGGACAGTA,-0.228
19,TACAACGTGGTA,3.2
20,CGACACGTGCTA,3.18
21,TGAGTGTGAGTA,0.413
22,TGACAGTATGTA,0.262
23,GGACGCGTGGTA,3.14
